Test results reported in article PMC13083723 (Patterns, 2026).
Out of some 5,400 compounds screened, about 190 (3.5%) showed an effect of 50% or more. Some of the results follow.

What follows are compounds tested on Vero-E6 (assay: primary screen, phospholipidosis by LipidTOX staining; higher = more effect of the substance). Conditions: 10 µM.
Procedure, shortened: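 Drug-induced phospholipidosis detected with HCS LipidTOX Red reagent in Vero-E6 cells. Compounds tested at 10 μM, with amiodarone (10 μM) as positive control and DMSO (0.1 v/v %) as vehicle.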

Compound	result_ITMP
Cc1ccccc1C(=O)Nc1ccc(C(=O)N2CCCC(O)c3cc(Cl)ccc32)c(C)c1 (stereo not shown)	1.63%
COc1ccccc1N1CCN(CCN2C(=O)c3ccccc3C(C)(C)C2=O)CC1	2.7%
Cc1[nH]c(/C=C2\C(=O)Nc3ccc(F)cc32)c(C)c1C(=O)NC[C@H](O)CN1CCOCC1	-7.3%
CC(=O)C1C(=O)C=C(C)OC1=O (stereo not shown)	0.74%
NC(=O)c1ccc(-c2nc(-c3ccc4c(c3)OCCO4)c(-c3ccccn3)[nH]2)cc1	-2.75%
Cc1cccc(C)c1NC(=O)CC12CCCN1CCC2	-2.24%
CC[C@H](C)[C@H](NC(=O)[C@H](Cc1ccc(O)cc1)NC(=O)[C@@H](NC(=O)[C@H](CCCNC(=N)N)NC(=O)[C@@H](N)CC(=O)O)C(C)C)C(=O)N[C@@H](Cc1cnc[nH]1)C(=O)N1CCC[C@H]1C(=O)N[C@@H](Cc1ccccc1)C(=O)O	-2.78%
O=P([O-])(O)C(O)(Cc1cccnc1)P(=O)(O)O	-2.68%
O=C(CN1CCN(C(=O)c2ccco2)CC1)Nc1cc(C(F)(F)F)ccc1Cl	-4.26%
CC(C)c1cc2c(cc1S(=O)(=O)O)[C@@]1(C)CCC[C@@](C)(C(=O)O)[C@@H]1CC2	-4.65%
COc1cc(C[C@@H](CO)[C@H](CO)Cc2ccc(O)c(OC)c2)ccc1O	-7.51%
CC[C@H](CC[C@@H](C)[C@H]1CC[C@H]2[C@@H]3CC=C4C[C@@H](O)CC[C@]4(C)[C@H]3CC[C@]12C)C(C)C	1.55%
N=C(N)NCCSSCCNC(=N)N	5.22%
CN(C)C(=O)C(CCN1CCC(O)(c2ccc(Cl)cc2)CC1)(c1ccccc1)c1ccccc1	67.2%
CC(C(=O)O)c1ccc2c(c1)[nH]c1ccc(Cl)cc12 (stereo not shown)	-1.06%
CCCCc1cc2ccccc2c(OCCN(C)C)n1	37.6%
NC(=O)c1ccc(F)c2c1C[C@@H](N(C1CCC1)C1CCC1)CO2	-2.33%
CC(C)OC(=O)N[C@H]1Cc2c(n(Cc3ccccn3)c3ccc(C#N)cc23)C1	-5.59%
NC(=O)NCCN1CCN(c2cccc(C(F)(F)F)c2)CC1	3.97%
Cc1cccc(C)c1NC(=O)C(C)N (stereo not shown)	-5.92%
C=CCc1cccc(/C=N/NC(=O)CN2CCN(Cc3ccccc3)CC2)c1O	-0.06%
O=C1c2c(O)cccc2C([C@@H]2O[C@H](CO)[C@@H](O)[C@H](O)[C@H]2O)c2cc(CO)cc(O)c21 (stereo partly shown)	-1.48%
CN1C[C@@H]2CN(c3ccc(-c4ccccc4)nn3)C[C@@H]2C1	-1.43%
O=C(Nc1cc(Oc2cc(F)c(NC(=O)C3(C(=O)Nc4ccc(F)cc4)CC3)cc2F)ccn1)C1CC1	-1.82%
Cc1noc2c1-c1ccccc1C(c1ccc(Cl)cc1)=N[C@H]2CC(N)=O	-0.06%
O=C(Nc1cccc(C(F)(F)F)c1)Nc1cc(S(=O)(=O)NC2CC2)ccc1-c1ccsc1	12.9%
COC(=O)[C@H](Cc1ccc([N+](=O)[O-])cc1)NC(=O)c1cccc2ccccc12	2.76%
CCCCCCCCCCCCCCCCCC(=O)OCC(O)[C@H]1OC[C@H](O)[C@H]1O (stereo partly shown)	-4.16%

Compound	result_ITMP
CCCC(CCC)C(=O)Nc1ccn([C@@H]2O[C@H](CO)[C@@H](O)C2(F)F)c(=O)n1	-1.7%
O=C(Nc1ccccc1-c1cn2c(CN3CCNCC3)csc2n1)c1cnc2ccccc2n1	-1.16%
CC(C)(C)NCC(O)COc1cccc2c1CCC(=O)N2 (stereo not shown)	-0.45%
CNC(=O)c1cc(Oc2ccc(NC(=O)Nc3ccc(Cl)c(C(F)(F)F)c3)c(F)c2)ccn1	-4.14%
C/C=C1\C(=O)C[C@H]2[C@@H]3CCC4=CC(=O)CC[C@]4(C)[C@H]3CC[C@]12C	-1.45%
CC(C(=O)OC1CC2CCC(C1)N2C)c1ccc(Br)cc1 (stereo not shown)	20.6%
CN(C)CC(=O)Nc1ccc2[nH]c(=O)c3ccccc3c2c1	0.11%
O=C([O-])c1cc2cc(Cc3cccnc3)ccc2o1	-0.95%
COc1cc2c(=O)c(-c3ccc(O)cc3)coc2cc1O	3.49%
Cc1[nH]c2ccc(O)cc2c1CCN	2.83%
CNC(=O)c1cc(Oc2ccc(NC(=O)Nc3cc(C(C)(C)C)nn3-c3ccc4ncccc4c3)c(F)c2)ccn1	40.5%
CCC/N=C1\S/C(=C\c2ccc(OC[C@H](O)CO)c(Cl)c2)C(=O)N1c1ccccc1C	-0.41%
OC[C@H]1O[C@H](O[C@]2(CCl)O[C@H](CCl)[C@@H](O)[C@@H]2O)[C@H](O)[C@@H](O)[C@H]1Cl	4.63%
CN1C2CC[C@@H]1C[C@@H](OC(=O)[C@H](CO)c1ccccc1)C2	-4.79%
Nc1nc2ccc(OC(F)(F)F)cc2s1	-2.22%
COc1ccc2c(c1)c(CC(=O)O)c(C)n2C(=O)c1ccc(Cl)cc1	-2.48%
O=C1[C@@H]2[C@H]3CC[C@H](C3)[C@@H]2C(=O)N1C[C@@H]1CCCC[C@H]1CN1CCN(c2nsc3ccccc23)CC1	3.52%
Cc1ncc(CN2CC=C(c3ccccc3)CC2)c(N)n1	1.09%
CN(C)CCCC(=O)Nc1ccc(C(=O)Nc2cccc(Nc3ncc(Cl)c(-c4c[nH]c5ccccc45)n3)c2)cc1	-2.25%
Cc1oc(-c2ccccc2)nc1CCC(=O)c1ccc(CC2SC(=O)NC2=O)cc1 (stereo not shown)	-4.88%
C[C@]1(O)C[C@@H](c2nc(-c3ccc4ccc(-c5ccccc5)nc4c3)c3c(N)nccn32)C1	-1.51%
Cc1ccc(S(=O)(=O)[N-]Cl)cc1	-2.26%
O=C(C1CCCCC1)N1CC(=O)N2CCc3ccccc3C2C1 (stereo not shown)	-5.83%
COC(=O)/C=C/c1cc(O)ccc1O	0.44%
CC(=O)c1ccc2c(c1)N(CCCN(C)C)c1ccccc1S2	42.6%
COc1cccc(-c2cc(=O)c3ccccc3o2)c1N	-2.29%
CNC(=O)c1cccc(-c2ccc3c(N4CCOC[C@@H]4C)nc(N4CCOC[C@@H]4C)nc3n2)c1	-1.78%
